The results in this text go back to PubChem BioAssay AID1405 (National Center for Advancing Translational Sciences (NCATS), 2008).

Some of the results follow. Further columns of the screen follow, without active or inactive calls. The list favours compounds with an active or inconclusive main result. Words in brackets tell the shape of the fitted curve; partial curves, single points and poor fits give uncertain potencies.

This assay is described as follows: Confirmation and Secondary Assays for Modulators of Hemoglobin Beta Chain Splicing at IVS2 654 and 705 loci. Particulars: HeLa beta-globin IVS2-654 splicing GFP reporter, 48 h.
Source text: NIH Chemical Genomics Center [NCGC]
NIH Molecular Libraries Screening Centers Network [MLSCN]
PI Name: Dr. Ryszard Kole
Modulation of Alternative Splicing as Therapy
Abnormal splicing is associated with a number of diseases, including cancer and genetic diseases such as cystic fibrosis, muscular dystrophy and beta-thalassemia. Alteration of disease associated splicing patterns provides a promising target for treatment. […] Mutations in the second intron of the b-globin gene at positions 654 or 705 are clinically relevant and cause mis-splicing which results in an out of frame gene product.
EGFP-654 HeLa Cells as screen system.
(§1) HeLa cell lines were stably transfected with a construct in which the EGFP (enhanced green fluorescent protein) cDNA was interrupted by the second intron of the beta-globin gene (IVS2-654). The ISV2 intron contains mutations which cause mis-splicing of EGFP and premature termination of EGFP which results in a nonfluorescent protein product. […] Expression of the transgene was driven by the CMV promoter. We concluded that a low molecular weight compound, which restored correct splicing of intron 2 would also generate functional EGFP protein, resulting in a fluorescent signal. Thus, the HeLa cells that express the EGFP-654 construct can be used for high throughput screening of a chemical library.
EGFP-705 HeLa Cells as screen system.
as §1, with “(IVS2-705).” for “(IVS2-654).”, “EGFP-705” for “EGFP-654”, “validation of splice site specificity of compounds identified in primary” for “high throughput”, “the ISV2 654 construct.” for “a chemical library.”
NCGC Assay Protocol Summary:
Confirmatory Screening. Freshly thawed HeLa EGFP-654 or EGFP-705 cells were seeded in 5 ul of optimem media (Invitrogen) containing 2 % fetal calf serum (Hyclone) and 1x penicillin/streptomycin (Invitrogen) at a concentration of 500 cells per well in 1536-well plates. Cells were incubated overnight at 37C in 5% CO2. The next day, cells were treated with DMSO, 500 nM antisense ISV2 654 (or 705) PNA control oligo, or library compound and allowed to grow at 37C in 5% CO2 for 2 days. The PNA oligo blocked the mutation site in the intron and allowed proper (wild type) splicing to occur, resulting in full length EGFP expression and also allowed for optimization of the assay parameters. Plates were read in the Acumen Explorer (TTP Labtech) using 488 nm laser excitation and 500-520 nm emission PMT filter in a 1 x 8 uM capture mode, and were read immediately after compound pinning (beta-globin-654-gfp-0hr), at 24 hours (beta-globin-654-gfp-24hr and beta-globin-705-gfp-24hr), and at 48 hours (beta-globin-654-gfp-48hr and beta-globin-705-gfp-48hr). Fluorescnet objects ranging in size from 5 to 250 uM were measured and the total peak GFP intensity for each well was used for data analysis. Cell death was measured by quantitating protease release by sick and dying cells using Promega's luminescent Cytotox-Glo reagent. Cells were treated with 2ul of Cytotox- Glo reagent incubated at room temperature for 5 minutes and read in the Viewlux plate reader with a 30 second integration time (beta-globin-654-protease-48hr and beta-globin-705-protease-48hr).
Keywords: Thalassemia, beta-thalassemia, beta-globin, EGFP, ISV2 654, ISV2 705, SSO, PNA, antisense, splicing, MLSMR, MLSCN, NIH Roadmap, qHTS, NCGC

Setting [1] is: measured here: IVS2-654 protease reporter 48 h.
Setting [2] is: measured here: IVS2-705 protease reporter 48 h.
[3] abbreviates: measured here: IVS2-705 GFP reporter 48 h.
The mark [4] stands for this setting: measured here: IVS2-705 GFP reporter 24 h.

Turning to `CSc1ncnc2c1ncn2C1OC(CO)C(O)C1O` (configuration not stated), the half-maximal activity concentration (AC50) under setting [1] is 3.98 µM [rising, full curve] and the AC50 under setting [2] was 7.94 µM [rising, full curve].
Consider `Cn1cnc([N+](=O)[O-])c1Sc1ncnc2nc[nH]c12`, for which the AC50 is 2.24 µM [rising, full curve] under setting [1] and 3.55 µM [rising, full curve] under setting [3].
Consider `Nc1nc(=S)c2[nH]cnc2[nH]1`, for which the AC50 is, setting by setting: under setting [1], 1.26 µM [rising, full curve]; under setting [4], 14.1 µM [rising, full curve]; under setting [3], 7.08 µM [rising, full curve]; under setting [2], 1.41 µM [rising, full curve].
As to `S=C1NC=NC2N=CNC12` (configuration not stated), the AC50 runs as follows: under setting [1], 2 µM [rising, full curve]; under setting [3], 2 µM [rising, full curve].
As to `Nc1nc(Cl)nc2c1ncn2[C@@H]1O[C@H](CO)[C@@H](O)[C@H]1O`, the AC50 under setting [1] is 31.6 µM [rising, single point].
With `Nc1nc2n[nH]nc2c(=O)[nH]1`, the AC50 is 7.08 µM [rising, full curve] under setting [1]; 31.6 µM [rising, single point] under setting [4]; 7.94 µM [rising, full curve] under setting [3].
On to `Nc1nc(=S)c2ncn([C@H]3O[C@@H](CO)[C@@H](O)[C@@H]3O)c2[nH]1`, for which the AC50 is 2.24 µM [rising, full curve] under setting [1]; 12.6 µM [rising, full curve] under setting [4]; 4.47 µM [rising, full curve] under setting [3]; 1.58 µM [rising, full curve, poor fit] under setting [2].
On to `OCC1OC(n2cnc3c(=S)nc[nH]c32)C(O)C1O` (configuration not stated), for which the AC50 was 2.24 µM [rising, full curve] under setting [1] and 2 µM [rising, full curve] under setting [3].
As for `CCn1c(C)nc([N+](=O)[O-])c1Sc1ncnc2nc[nH]c12`, the AC50 by setting is: under setting [1], 3.16 µM [rising, full curve]; under setting [3], 3.16 µM [rising, full curve].
